One assay deals with T1, CD3 on Jurkat cells (UniProt P07766).
T1 construct: whole, on cells; CD3 is a multi-chain complex; also called CD3 antigen
The experiment in a line: flow cytometry on Jurkat cells, Alexa Fluor 488 anti-human IgG Fc. (In general: In flow cytometry, cells or beads pass a laser one at a time.)

The target in assay [1] is T2, CD40 on CD40-overexpressing HEK 293 cells (UniProt P25942 21-277, limits assumed).
T2 construct: whole, on cells
The experiment in a line: flow cytometry on CD40-overexpressing HEK 293 cells, as in Example 4.

T2 sequence (P25942 21-277 limits assumed): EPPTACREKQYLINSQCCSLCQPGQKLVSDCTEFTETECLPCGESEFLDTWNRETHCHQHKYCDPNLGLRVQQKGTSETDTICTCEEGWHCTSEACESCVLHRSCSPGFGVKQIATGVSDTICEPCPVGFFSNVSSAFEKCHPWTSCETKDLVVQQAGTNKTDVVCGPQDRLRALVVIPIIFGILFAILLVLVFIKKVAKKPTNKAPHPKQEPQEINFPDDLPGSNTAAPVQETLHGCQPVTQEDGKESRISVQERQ

B1: DB001 Fab-body (bispecific antibody, human IgG1, kappa)
light: DIQMTQSPSSMSVSVGDRVTITCHSSQDINSNIGWLQQKPGKSFKGLIYHGTNLDDGVPSRFSGSGSGTDYTLTISSLQPEDFATYYCVQYAQFPWTFGGGTKLEIKTVAAPSVFIFPPDAQVTQSPSSLSASVGDRVTITCRSSTGAVTTSNYANWVQEKPGKLFKGLIGGTNKRAPGVPSRFSGSGSGTDATLTISSLQPEDFATYFCALWYSNLWVFGGGTKVEIKRTVAAPSVFIFPPSDEQLKSGTASVVCLLNNFYPREAKVQWKVDNALQSGNSQESVTEQDSKDSTYSLSSTLTLSKADYEKHKVYACEVTHQGLSSPVTKSFNRGECGGSGG[human IgG1 Fc with changes omitted here]
heavy: QVQLQESGPGLVKPSQTLSLTCTVSGYSISSDFAWNWIRQPPGKGLEWMGYISYSGNTRYQPSLKSRITISRDTSKNQFFLKLNSVTAADTATYYCVTAGRGFPYWGQGTLVTVSSASTKGPEVQLVESGGGLVQPGGSLRLSCAASGFTFSTYAMNWVRQAPGKGLEWVGRIRSKYNNYATYYADSVKDRFTISRDDSKNTAYLQMNSLRAEDTAVYYCTRHGNFGNSYVSWFAYWGQGTLVTVSSASTKGPSVFPLAPSSKSTSGGTAALGCLVKDYFPEPVTVSWNSGALTSGVHTFPAVLQSSGLYSLSSVVTVPSSSLGTQTYICNVNHKPSNTKVDKKV[human IgG1 Fc with changes omitted here]
notes: LFc and HFc chains; signal peptides left out
What is called EC50 is the concentration at which the effect is half-maximal. Low readings indicate a more potent agent, high ones a less potent agent. B1 returned an EC50 in the assay with CD3 on Jurkat cells of 80 nM.

B2: anti-CD40 Fab-body (antibody, human IgG1, kappa)
light: DIQMTQSPSSVSASVGDRVTITCRASQGIYSWLAWYQQKPGKAPNLLIYTASTLQSGVPSRFSGSGSGTDFTLTISSLQPEDFATYYCQQANIFPLTFGGGTKVEIKRTVAAPSVFIFPPSDEQLKSGTASVVCLLNNFYPREAKVQWKVDNALQSGNSQESVTEQDSKDSTYSLSSTLTLSKADYEKHKVYACEVTHQGLSSPVTKSFNRGECGGSGG[human IgG1 Fc with changes omitted here]
heavy: [about 100 residues omitted here][about 120 residues omitted here][human IgG1 Fc with changes omitted here]
notes: Monovalent Fab-Fc heterodimer (LFc and HFc chains); signal peptides left out
Regarding B2, in assay [1], the EC50 was determined as 0.47 µg/mL.

For the origin of these results see patent publication US20140221622A1 (AbbVie / Abbott, published 2014).
